Assay results reported in publication PMC6919601, “Identification of Plasmodium dipeptidyl aminopeptidase allosteric inhibitors by high throughput screening” (PLoS ONE, 2019).
Out of some 110,000 compounds screened, about 230 (0.21%) showed an effect of 50% or more. The list shows a part of the results.

molecular target: DPAP1 (Plasmodium falciparum, UniProt Q8IIJ9); assay: primary screen, percent inhibition; read by cleavage of a fluorogenic dipeptide substrate; higher = more effect of the substance; set-up: species or system P. falciparum D10 trophozoite lysates; single well
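Also: 30 min substrate incubation versus DMSO and 10 µM JCP410 controls.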

Sequence of DPAP1 (Q8IIJ9 whole entry, looked up): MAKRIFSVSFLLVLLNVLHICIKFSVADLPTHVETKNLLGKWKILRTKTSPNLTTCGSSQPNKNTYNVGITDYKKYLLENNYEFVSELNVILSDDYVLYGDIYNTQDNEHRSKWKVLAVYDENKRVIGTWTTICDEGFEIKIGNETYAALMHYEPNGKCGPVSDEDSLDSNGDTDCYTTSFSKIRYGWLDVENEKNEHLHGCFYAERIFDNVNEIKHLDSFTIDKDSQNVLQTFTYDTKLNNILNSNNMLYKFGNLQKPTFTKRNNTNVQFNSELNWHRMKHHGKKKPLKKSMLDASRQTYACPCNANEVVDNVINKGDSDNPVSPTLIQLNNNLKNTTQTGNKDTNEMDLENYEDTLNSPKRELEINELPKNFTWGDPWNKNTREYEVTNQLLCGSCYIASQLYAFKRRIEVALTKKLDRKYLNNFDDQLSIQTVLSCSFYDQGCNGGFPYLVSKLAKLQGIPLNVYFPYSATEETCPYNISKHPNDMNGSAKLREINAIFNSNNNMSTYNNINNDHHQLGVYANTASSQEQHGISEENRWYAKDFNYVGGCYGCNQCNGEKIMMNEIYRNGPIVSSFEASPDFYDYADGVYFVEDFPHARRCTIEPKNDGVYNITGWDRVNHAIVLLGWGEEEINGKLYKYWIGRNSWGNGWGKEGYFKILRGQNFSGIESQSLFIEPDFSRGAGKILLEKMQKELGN

SMILES | % Inhibition @ 10 uM [%]
COCc1cc(C)nc(SCC(=O)NC2CCCCC2)c1C#N | -4.77
CNc1nc(Nc2ccc(C(C)=O)cc2)nc(OC(C(F)(F)F)C(F)(F)F)n1 | 7.96
CC(CC(=O)O)n1ccnc1 (stereo not drawn) | -4.27
COc1cc2nc(S)nc(NCCc3ccc(Cl)cc3)c2cc1OC | 5.58
CCCOC(=O)c1ccc(NC(=O)c2ccc(Cn3cc(Br)cn3)cc2)cc1 | 0.431
CCOc1ccccc1C(=O)Nc1c(C(=O)NC(C)(C)C)oc2ccccc12 | 5.25
CC1CCCC(C)N1C(=O)Cc1noc2ccccc12 (stereo not drawn) | 3.98
Cc1ccc(NC2=NC(=O)C(CC(=O)Nc3ccccc3)S2)cc1Cl (stereo not drawn) | -1.95
c1ccc(C2CCC(NCc3ccncc3)CC2)cc1 (stereo not drawn) | 97.8
O=C(c1ccc(-c2ccccc2)cc1)N1CCN(c2ccc([N+](=O)[O-])cc2)CC1 | 3.1
COCCOC(=O)Nc1nc2sc3c(c2s1)CCCC3 | 3.25
CC(=O)Nc1ccc(S(=O)(=O)Nc2cccc(F)c2)cc1 | -7.5
O=C1C(Cl)=C(N2CCN(c3ccccc3)CC2)C(=O)N1c1cccc(Cl)c1 | -5.07
O=C(O)CCc1nc(O)c2c3c(sc2n1)CCC3 | 21.2
CCCN1C(C(=O)c2ccccc2)=C(OC(=O)c2ccc(Cl)cc2)c2ccccc2S1(=O)=O | -2.99
O=c1[nH]n(-c2ccc([N+](=O)[O-])cc2)c(=O)c2ccccc12 | 1.7
COCCCNC(=O)Cn1cnc2sc(C)c(S(=O)(=O)N3CC(C)CC(C)C3)c2c1=O (stereo not drawn) | -5
Cc1cc2c(n1-c1ccc(C(=O)NC(C)C)cc1)CCCC2 | -3.53
COc1ccc(-c2nn(C)c3sc(C(=O)N4CCOCC4)cc23)cc1OC | 2.9
COC(=O)c1ccc(C(=O)N(CCN(C)C)c2nc3ccc(F)cc3s2)cc1 | 1.71
Cc1cc(OCC(=O)Nc2ccc(S(=O)(=O)N3CCCCC3)cc2)ccc1Br | -3.43
Cc1[nH]nc2c1C(c1ccc(OCc3ccccc3)cc1)C(C#N)=C(N)O2 (stereo not drawn) | -0.759
CC(C)(C)OC(=O)N1CC(=O)C(NC(=O)C(CC(=O)N2CCOCC2)CS(=O)(=O)Cc2ccccc2)C1 (stereo not drawn) | 4.33
COc1ccc(OCC(=O)N2CCc3ccccc32)cc1 | 0.59
CC(C)c1ccc(/C=C2\C(=O)NC(=S)N(c3cccc(Cl)c3)C2=O)cc1 | 4.52

SMILES | % Inhibition @ 10 uM [%]
Cc1ccc(Cn2c3ccccc3c3cnn(CC(=O)N4CCCC4)c(=O)c32)cc1 | 3.3
COC(=O)C(O)(c1ccc(N(C)C)cc1)C(F)(F)F (stereo not drawn) | -2.44
Fc1ccccc1OCCCCCCN1CCCCC1 | -3.94
CCCCOc1ccc(S(=O)(=O)NCc2cn3ccsc3n2)cc1 | -0.72
O=C(O)CCCNC(=O)c1ccc2c(c1)OCCO2 | 2.33
COc1ccc(OCC(=O)NC2CC(C)(C)NC(C)(C)C2)cc1 | 2.03
Cc1cc(OCC(=O)Nc2ccc(S(=O)(=O)N3CCCC3)cc2)c(C(C)C)cc1Br | -4.86
COc1ccc(/C=C2N=C(/C=C/c3ccccc3)OC/2=O)c(OC)c1 | -3.83
COc1ccc(C(=N)NOC(=O)COc2ccc(Br)c(C)c2)cc1 | -3.21
Cc1[nH]c2ccccc2c1/C=C(/C#N)C(=O)NCc1ccccc1 | 0.392
CCc1cccc(C)c1NC(=O)C1CC(=O)N(c2ccc(C)c(C)c2)C1 (stereo not drawn) | -5.3
CSc1ccccc1NC(=O)C(C)NS(=O)(=O)c1ccc(C)cc1 (stereo not drawn) | 3.42
CCOc1ccc(NC(=O)C2C3C=CC(C3)C2C(=O)Nc2ccc(OCC)cc2)cc1 (stereo not drawn) | -1.28
Cc1ccc(C(=O)NCc2nnc(SCC(=O)Nc3nccs3)n2-c2ccccc2)cc1C | -4.97
Cc1cn(C(c2ccccc2)c2ccccc2)c(=O)[nH]c1=O | -0.834
CC1CCc2c(sc3nnn(CCCCOc4ccccc4)c(=O)c23)C1 (stereo not drawn) | -0.946
Cc1ccc2nc(-c3ccc(N4C(=O)CC(N5CCN(CCO)CC5)C4=O)cc3)sc2c1 (stereo not drawn) | 2.79
Cc1cc2c(c(=O)o1)C(c1cccnc1)C(C#N)=C(N)O2 (stereo not drawn) | 4.73
CCOc1ccc(-n2c(C)cc(/C=C3/C(=N)N4C=C(C)SC4=NC3=O)c2C)cc1 | -1.4
CC1(C)CC2CC(C)(CN2C2CCN(CCc3ccccc3)CC2)C1 (stereo not drawn) | 1.08
COCCCNC(=O)/C(C#N)=C/c1c(Oc2ccc(Cl)cc2)nc2ccccn2c1=O | -9.75
Cc1c(CNc2ccc(F)c(F)c2)c(=O)n(-c2ccccc2)n1C | -3.27
O=C(CCc1nc2cccnc2n1-c1ccccc1)N1CCC(Cc2ccccc2)CC1 | -3.45
CCC(=O)N1N=C2CC(C)(C)OCC2C1c1ccccc1 (stereo not drawn) | -0.0938
O=C(O)c1nn2c(C(F)(F)F)cc(-c3ccc(Br)cc3)nc2c1Br | 2.81

SMILES | % Inhibition @ 10 uM [%]
Cc1nc2sccn2c(=O)c1S(=O)(=O)NCCc1ccc(Cl)cc1 | 1.68
Cc1ccc(NC(=O)C2CCCCC2C(=O)O)nc1 (stereo not drawn) | -1.88
Oc1ccc(O)c(C2CC3CCC2C3)c1 (stereo not drawn) | -1.99
CC(=O)c1cccc(NC(=O)c2cnn(-c3ccccc3)c2C)c1 | 2.64
CCCCC(=O)N1CCN(c2nc(Cc3ccccc3)c3c(c2C#N)CC(C)(C)OC3)CC1 | -2.78
Cc1ccccc1Cn1c(-c2cncs2)nc2ccccc21 | -0.169
COc1ccc(OCCCC(=O)Nc2ccc(Br)cc2)cc1 | 4.76
CCc1nnc(NC(=O)CSc2ccc3nnc(-c4cccs4)n3n2)s1 | 1.13
OCC1CCCCN1C/C=C/c1ccccc1 (stereo not drawn) | -4.75
c1ccc(CSc2nccn2Cc2ccccc2)cc1 | -1.97
CCCCOC(=O)C1=C(C)NC(=O)NC1c1ccc(O)cc1 (stereo not drawn) | -7.18
CC(C)OC(=O)c1ccc2[nH]c3c(c2c1)CCCC3 | -6.55
CCNc1ncnc2c1cnn2-c1ccc(C)c(C)c1 | -1.79
O=C(CN1C(=O)c2cccc3cccc(c23)C1=O)N1CCN(c2ccccc2)CC1 | -5.06
O=C(c1cc2c(Cl)nc3ccccc3c2s1)N1CCN(Cc2ccc3c(c2)OCO3)CC1 | -1.54
CCCCOc1ccc(CN2CCN(CCOCCO)CC2)cc1 | -4.04
Cc1cc(C)c(-n2nnnc2SCc2nc(N)nc(N3CCOCC3)n2)c(C)c1 | -1.24
COc1ccc(OCC(=O)N2N=C(C(F)F)CC2(O)C(F)F)cc1 (stereo not drawn) | 0.709
O=C(NCCc1cccs1)C1CCCN(S(=O)(=O)N2CCOCC2)C1 (stereo not drawn) | -4.68
O=C(O)c1ccc(CN2CCN(Cc3ccccc3)CC2)cc1 | 5.42
CN1CCCN(C/C=C/c2ccc(N(C)C)cc2)CC1 | -1.5
O=C(NCc1ccccc1)C1CC(=O)N(c2ccc(OCC(=O)N3CCCC3)cc2)C1 (stereo not drawn) | 4.05
OCC(O)C1OC(Nc2ccc(Br)cc2)C(O)C1O (stereo not drawn) | -1.74
Cn1cc(CNC(=O)C23CC4CC(CC(C4)C2)C3)cn1 | 1.61
N#CC1=C(N)Oc2[nH]nc(-c3ccc(F)cc3)c2C1c1cccc(F)c1 (stereo not drawn) | -1.84

SMILES | % Inhibition @ 10 uM [%]
CC1CCCCN1CCNC(=O)Cn1c(=O)c2cccn2c2cccnc21 (stereo not drawn) | -0.959
COc1ccccc1CNC(=O)C1CCCN(c2nc3ccsc3c(=O)s2)C1 (stereo not drawn) | 6.03
Cc1cc(C)c(C)c(S(=O)(=O)NCc2ccc(C(=O)Nc3ccncc3)cc2)c1C | -1.84
CSc1ccc(-c2nc(O)c3c(n2)Oc2ccccc2C3)cc1 | 3.61
CCOC(=O)N1CCN(c2c(NCCCOC)c(=O)c2=O)CC1 | 1.93
CC(=O)Nc1ccc(S(=O)(=O)Nc2ccc(C)cc2C)cc1 | 3.35
c1ccc2c(NCC3CCCO3)nc(N3CCCCC3)nc2c1 (stereo not drawn) | 2.84
CC(=O)Nc1ccc(NC(=O)CN(c2ccccc2C)S(C)(=O)=O)cc1 | -15.1
Cc1ccc(-c2cc(C(F)(F)F)n3ncc(C(=O)NCc4cnn(C)c4C)c3n2)cc1 | 1.79
O=C(CN1C(=O)c2ccccc2C1=O)Nc1cccc(C(F)(F)F)c1 | -6.68
Cc1cccc(C(=O)Nc2scc(-c3ccccc3)c2C(=O)O)c1 | -2.03
O=C(Nc1ccc(OCc2ccccc2)cc1)C1CCN(S(=O)(=O)c2ccc(F)cc2)CC1 | -2.98
O=C1Nc2ccccc2C(O)(C(=O)O)N1c1ccccc1 (stereo not drawn) | 0.774
Clc1ccc(-c2nnc(-c3ccccc3Cl)o2)cc1 | 0.815
O=C(OCc1cccc(COC(=O)c2ccc([N+](=O)[O-])cc2)n1)c1ccc([N+](=O)[O-])cc1 | 0.00178
COc1ccc(N2CCN(Cc3cc(C)c(OC)cc3C)CC2)cc1 | -2.81
CCc1ccc(OCC(=O)NC2C3CC4CC(C3)CC2C4)cc1 (stereo not drawn) | -4.43
O=C(O)c1ccc(NCc2c(Cl)cccc2Cl)cc1 | 3.37
Cc1cc(C)c2nc(N3CCC(C(=O)NCc4ccccn4)CC3)sc2c1 | 4.95
Cc1ccc(-n2cc(-c3ccccc3)c3c(NCCOCCO)ncnc32)cc1Cl | 3.36
Cc1oc(-c2ccc(C(=O)NCc3ccc4c(c3)OCO4)cc2)nc1CS(=O)c1ccccc1 (stereo not drawn) | -0.767
CCS(=O)(=O)c1cc([N+](=O)[O-])c(Nc2ccc3ccccc3c2)s1 | -0.128
Cc1sc2ncn(CC(=O)NCCCC(=O)N3CCN(Cc4ccccc4)CC3)c(=O)c2c1C | -0.74
COc1ccc(C(=O)Nc2nnc(C(F)(F)F)s2)cc1 | -5.96
